{"source": "FireProtDB", "settings": "Aspergillus oryzae (strain ATCC 42149 / RIB 40); pH 7; Thermal; Absorbance; Sodium cacodylate 10 mM; reversible: yes; whole UniProt chain shown", "note": "A number of entries come with more than one value. The other results are left out here. There may be further records. Results that share an entry repeat one measurement across runs, samples, wells, individuals or studies. What stands in brackets tells the records apart. A, B and so on number the origins entry by entry. Signs of the kind (2×) count equal records among those shown.", "data": [{"protein": "Guanyl-specific ribonuclease T1 wild type, P00651 (protein) MMYSKLLTLTTLLLPTALALPSLVERACDYTCGSNCYSSSDVSTAQAAGYQLHEDGETVGSNSYPHKYNNYEGFDFSVSSPYYEWPILSSGDVYSGGSPGADRVVFNENNQLAGVITHTGASGNNFVECT", "values": [{"measurement": "Tm", "value": "57.6 °C [study A] and 57.9 °C, 58 °C (2×), 58.6 °C [study B]"}]}]}
